Experimental data published in PubChem BioAssay AID1476 (National Center for Advancing Translational Sciences (NCATS), 2009).
About 4,500 (2.2%) of roughly 200,000 compounds were called active. Inconclusive means that the source gave no clear call. Such entries were picked first, then a sample of the others. Calls come from the whole dose curve; as a rule, active = well fitted inhibition curve with a large enough effect; inconclusive = small, poorly fitted or top-dose-only effect, or effect the other way; inactive = flat fitted curve, though single readings scatter. A potency beside an inconclusive call is a rough fit, not a confirmed value.

target: Cruzipain (Trypanosoma cruzi) (UniProt P25779); assay: qHTS Assay for Promiscuous and Specific Inhibitors of Cruzain (without detergent); conditions: purified cruzain, Z-FR-AMC fluorescence, no detergent; note: nearly all actives have a fitted effect of over 40% in size;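 for max response, negative = inhibition: plate controls were enzyme without inhibitor for no effect and buffer without enzyme for full effect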
Sequence of UniProt P25779 (P25779 whole entry, looked up): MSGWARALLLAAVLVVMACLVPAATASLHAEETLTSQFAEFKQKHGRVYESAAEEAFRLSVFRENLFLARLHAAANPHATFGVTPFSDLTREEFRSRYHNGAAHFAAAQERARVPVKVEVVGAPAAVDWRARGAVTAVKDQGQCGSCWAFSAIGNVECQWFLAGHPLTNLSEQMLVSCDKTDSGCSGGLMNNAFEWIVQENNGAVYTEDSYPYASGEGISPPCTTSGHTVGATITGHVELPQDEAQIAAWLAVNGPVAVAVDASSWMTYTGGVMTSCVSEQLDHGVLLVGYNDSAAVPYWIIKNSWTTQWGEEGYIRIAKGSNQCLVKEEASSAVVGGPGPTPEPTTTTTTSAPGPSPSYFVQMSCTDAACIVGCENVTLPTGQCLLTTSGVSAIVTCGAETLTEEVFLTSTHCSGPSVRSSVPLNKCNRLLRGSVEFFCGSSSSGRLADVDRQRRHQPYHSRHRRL
Procedure, shortened: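 Purified cruzain at 1.5 nM, pre-incubated 15 min with compound at room temperature in 100 mM sodium acetate pH 5.5, 5 mM DTT, 0.00005% Triton X-100. Reaction started with 2 uM Z-FR-AMC; AMC fluorescence increase over 60 s gives rate.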
Potency is the fitted concentration of half-maximal effect; tags give direction and shape of the fitted curve.

Compound	max response, negative = inhibition	Potency
CCOc1cc(Br)cc(C2NC(=O)c3c(sc4c3CCN(C)C4)N2)c1O (stereo not drawn)	inactive: 14.5%	–
CC(C)CCNC(=O)c1cc(-c2ccncc2)nc2ccc(S(=O)(=O)N3CCOCC3)cc12	–	inconclusive: 6.31 µM [activator, single point]
CCCOc1ccc(N2C(=O)CC(N(CCc3ccc(OC)c(OC)c3)C(=S)Nc3ccccc3)C2=O)cc1 (stereo not drawn)	–	inconclusive: 5.01 µM [activator, full curve]
COCCNC(=S)N1CCc2cc(OC)c(OC)cc2C1COc1cc(C)cc(C)c1 (stereo not drawn)	–	inconclusive: 25.1 µM [activator, partial curve]
COC(=O)c1cc(OC)c(OC)cc1NC(=O)CSc1ccccc1	–	inconclusive: 39.8 µM [activator, single point]
Nc1ccc(N=Nc2ccc(-c3ccc(O)cc3)cc2)c2ccc(S(=O)(=O)O)cc12	inactive: 9.82%	–
Clc1ccccc1OCCCCn1ccnc1	–	inconclusive: 39.8 µM [inhibitor, single point]
N#Cc1cc(Oc2cccc3cccnc23)c(-n2nnc3ccccc32)cc1C#N	–	inconclusive: 25.1 µM [inhibitor, single point]
Cc1nnc(N/N=C/c2cccc(OCc3ccc(Cl)c(Cl)c3)c2)n1N	–	inconclusive: 39.8 µM [activator, single point]
CC1CCC(C(C)C)[C@H](OC(=O)c2ccccc2)C1 (stereo partly drawn)	inactive: -4.02%	–
Cc1cc(C(=O)N/N=C/c2cc(Br)ccc2OC(=O)c2ccccc2)n[nH]1	–	inconclusive: 39.8 µM [inhibitor, single point]
COc1cc(C(c2sc3ncnn3c2O)N2CCN(c3ccccc3F)CC2)cc(OC)c1OC (stereo not drawn)	–	inconclusive: 39.8 µM [activator, single point]
CC(=O)NC1C(=O)N(CCc2ccccc2)c2ccc(Br)cc21 (stereo not drawn)	inconclusive: 103% [activator]	–
O=C(O)C(Cc1ccccc1)N1C(=O)/C(=C/c2cccc3ccccc23)SC1=S (stereo not drawn)	–	inconclusive: 20 µM [activator, partial curve]
CC1CCN(c2c(NCc3ccc(C(=O)N4CCc5ccccc54)cc3)c(=O)c2=O)CC1	–	inconclusive: 39.8 µM [inhibitor, single point]
CCN(CC)S(=O)(=O)c1cc(C(=O)Oc2ccccc2OC)ccc1OC	–	inconclusive: 31.6 µM [activator, single point]
CN(c1cccc(NC(=O)CN(c2ccc(C34CC5CC(CC(C5)C3)C4)cc2)S(C)(=O)=O)c1)S(C)(=O)=O	–	inconclusive: 7.94 µM [activator, full curve]
CC(=O)c1sc(N/N=C\c2cccc(Br)c2)nc1C	–	active: 0.199 µM
COc1cc2c3c(c1)C1(C(=O)N3C(C)(C)C=C2C)C(C#N)=C(N)Oc2cc(C)oc(=O)c21 (stereo not drawn)	–	inconclusive: 39.8 µM [activator, single point]
CC1(c2ccc(Cl)cc2)CC(C)(C)N(C(=O)c2ccccc2)c2ccccc21 (stereo not drawn)	–	inconclusive: 31.6 µM [inhibitor, single point]
CN(C)S(=O)(=O)c1ccc(Cl)c(NC(=O)COC(=O)c2cc(-c3ccccc3)nc3ccccc23)c1	–	inconclusive: 31.6 µM [inhibitor, single point]

Compound	max response, negative = inhibition	Potency
CC(Oc1ccccc1)C(=O)Nc1nc2ccc(S(N)(=O)=O)cc2s1 (stereo not drawn)	inactive: -6.62%	–
CCOc1ccccc1CNC(=O)Nc1cn(CC(C)C)c(=O)c2ccccc12	–	inconclusive: 25.1 µM [inhibitor, partial curve]
COc1ccccc1N1CCN(C(=O)c2nn(-c3ccccc3OC)c(=O)c3ccccc23)CC1	–	inconclusive: 39.8 µM [activator, single point]
CC(=O)Nc1c2c(nn1-c1ccc(C)cc1C)CSC2	inactive: 1.86%	–
Cc1cc(C(=O)CSc2nc(N)cc(N)n2)c(C)n1CCc1ccc(F)cc1	–	inconclusive: 39.8 µM [inhibitor, single point]
O=c1c2cnn(-c3ccc(F)cc3)c2ncn1Cc1ccccc1	–	inconclusive: 39.8 µM [inhibitor, single point]
Cc1sc2nc(CN(CCc3ccccc3)C(=O)c3ccco3)[nH]c(=O)c2c1C	–	inconclusive: 39.8 µM [inhibitor, single point]
CCCc1nnc(NC(=O)CCC(=O)N2CCN(CCn3c(C)ccc3C)CC2)s1	–	inconclusive: 39.8 µM [activator, single point]
COc1ccc(-n2ncc(C(=O)NCc3ccccc3)c2C2CCN(C(=O)OC(C)(C)C)CC2)cc1	–	inconclusive: 31.6 µM [activator, single point]
CCNC(=O)COc1ccc(C=O)cc1OC	–	inconclusive: 0.0251 µM [activator, partial curve, poor fit]
COc1ccc(C2CC(=O)C=C(NNS(=O)(=O)c3ccc(C)cc3)C2)cc1 (stereo not drawn)	–	inconclusive: 39.8 µM [activator, single point]
COc1ccc(-c2nc3c(C#N)c[nH]n3c2NC2CCCCC2)c(OC)c1	–	inconclusive: 31.6 µM [activator, single point]
COCc1cc(C)nc(OCC(=O)N/N=C/c2ccc(-c3cccc([N+](=O)[O-])c3)o2)c1C#N	–	inconclusive: 39.8 µM [activator, single point]
O=S(=O)(c1ccccc1)N1CCC2(CCCN(c3ncccn3)C2)CC1	inactive: -2.45%	–
Cc1cc(NC(=O)c2noc3c2CCCC3)no1	inactive: -0.938%	–
Cc1ccc(NC(=O)COc2ccc(C3SCCS3)cc2)cc1	–	inconclusive: 31.6 µM [inhibitor, single point]
Cc1cccc(C)c1NC(=O)CNc1ccccc1	–	inconclusive: 0.0251 µM [inhibitor, full curve, poor fit]
CCOC(=O)c1c(C)[nH]c(N=Nc2ccccc2)c1C	–	inconclusive: 39.8 µM [activator, single point]
Cc1nn(Cc2ccccc2Cl)c(C)c1NC(=O)CCCn1nc(C)c([N+](=O)[O-])c1C	–	inconclusive: 39.8 µM [activator, single point]
C[C@H]1C2=C3C(C[C@H]4C(=O)N(c5ccccc5)C(=O)[C@H]4[C@H]3[C@@]3(Cc4ccccc4)C(=NCCc4c[nH]c5ccccc45)OC(=O)N3C2=O)[C@H]2C(=O)N(c3ccccc3)C(=O)[C@H]21 (stereo partly drawn)	–	inconclusive: 3.16 µM [inhibitor, full curve]
Cc1ccc(CN2CCSc3ccc(C(=O)N4CCN(c5cccc(C)c5C)CC4)cc32)cc1	–	inconclusive: 3.98 µM [inhibitor, single point]

Compound	max response, negative = inhibition	Potency
CC(=O)Nc1cccc(NC(=O)CSc2nnc(Cc3cccn3C)n2-c2ccc(C)cc2)c1	–	inconclusive: 39.8 µM [activator, single point]
CN1/C(=C\C=C2/C(=O)Oc3ccccc3C2=O)C(C)(C)c2ccccc21	–	inconclusive: 39.8 µM [inhibitor, single point]
CCOC(=O)C1CCN(C(=O)C2COc3ccccc3C2)CC1 (stereo not drawn)	inactive: -5.77%	–
Cc1nc(N)sc1-c1csc(Nc2ccc(Cl)cn2)n1	–	active: 15.8 µM
COc1ccc(-c2csc(NCc3ccco3)n2)cc1C	–	inconclusive: 12.6 µM [inhibitor, partial curve]
CCOC(=O)c1ccc(NC(=O)CCc2c(C)nc3c(c(C)nn3C)c2C)cc1	–	inconclusive: 39.8 µM [activator, single point]
O=S(=O)(NCCc1csc(-c2ccc(F)cc2)n1)c1ccc(Cl)cc1	inactive: -3.56%	–
CC(=O)c1ccc(N2CCN(C(=O)C3CCN(S(=O)(=O)c4cccc5nonc45)CC3)CC2)cc1	inactive: 27.7%	–
COc1cc(NC(=O)c2cccs2)c(C(=O)OCC(=O)NC(=O)NCc2ccccc2)cc1OC	–	inconclusive: 39.8 µM [activator, single point]
Cn1cc(C(=O)NCc2cccs2)c(=O)c2cc(S(=O)(=O)N3CCCC3)ccc21	–	inconclusive: 39.8 µM [activator, single point]
NC(=O)c1cn(-c2ccccc2)nc1-c1cc2ccccc2oc1=O	inactive: -0.779%	–
CCCCC(CC)C1OCC(C[N+]2(C)CCOCC2)O1 (stereo not drawn)	inactive: -17.6%	–
Cc1ccc(Cl)cc1NC(=O)c1ccc(-c2nc(CSc3ccccc3)c(C)o2)cc1	–	inconclusive: 39.8 µM [inhibitor, single point]
CCC(=O)N1c2ccccc2CC1C(=O)N1CCN(c2ccccc2)CC1 (stereo not drawn)	inactive: 7.34%	–
Cc1c(C(=O)c2ccc3ccccc3c2)c2cccc3c2n1[C@H](CN1CCOCC1)CO3	–	inconclusive: 31.6 µM [activator, single point]
CCOc1ccc(CNC(=O)c2ccc3nc(Cc4ccc(OC)cc4)oc3c2)cc1OC	–	inconclusive: 31.6 µM [activator, single point]
COc1ccc(N2CCN(CC(O)COc3ccc(C(C)(C)C)cc3)CC2)cc1 (stereo not drawn)	–	inconclusive: 39.8 µM [inhibitor, single point]
Cc1ccc(N=Nc2ccc(O)c3ncccc23)cc1	–	inconclusive: 31.6 µM [inhibitor, single point]
COC(=O)c1cc(C(=O)NCCN2C(=O)S/C(=C\c3cccs3)C2=O)cc([N+](=O)[O-])c1	–	inconclusive: 39.8 µM [inhibitor, single point]
C=CCSc1nnc(NC(=O)CSc2nc3ccccc3o2)s1	–	active: 15.8 µM
Cc1ccc2c(CNCCc3ccc(Cl)cc3)c(C(=O)O)n(Cc3ccc(F)cc3)c2c1	–	inconclusive: 39.8 µM [inhibitor, single point]
